In the supplement of paper PMC11417369:
± gives the standard deviation of the averaged measurements. The list shows a part of the results.

System: PfAP2-I AP2 domain 3 (GST-tagged)
Assay: gcPBM binding intensity (ln(normalized median fluorescence intensity)); higher = stronger DNA binding
How it was run: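 After 1 h on an Agilent 4 × 180k array of primer-extended double-stranded 36-bp intergenic genomic probes and negative controls, bound GST-tagged P. falciparum DNA-binding domains were detected with Alexa488 anti-GST antibody and scanned at 488 nm. The domains had been expressed in E. coli, and binding took place in 1× PBS with 1% milk, 0.2 mg/ml BSA, 0.5% salmon testes DNA and 0.03% Triton X-100. Binding intensity is the highest Masliner-normalised natural-log median intensity across replicate spots of either probe orientation.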

Sequence | gcPBM binding intensity (ln)
ATAATATAGAAACACACACACATATATATATACATT [CACACA_site555] | 7.85 ± 0.48
TTTATATATAAATATATATATATATATATATATATA [TGCATGCA_negctrl_site121] | 9.07 ± 0.76
TAGTTTTTATATAGCACACATATTGTGATTATGTAT [CACACA_site1196] | 9.09 ± 0.21
TACTACCACGGACATGCATGCACATTATTACTCTAA [TGCATGCA_site313] | 8.25 ± 0.75
TTCTTAGATTGTACAGTACACACCTTTAGAATGTTA [CACACA_site212] | 7.97 ± 0.47
AATTCATTTTACCCATGTACACAATTATATTTTATA [XGTACX_site4127] | 8.29 ± 0.36
AAGAAAAAATGATGAATAGAGATCAAATCTATATAT [TGCATGCA_negctrl_site29] | 7.36 ± 0.68
ACATTCATAAAAAAAAGTACATTTTTTATAAAAGAA [XGTACX_site6197] | 7.74 ± 0.52
TTGTTAAATATTTATAAAATGAATTTAAAATGTACT [CACACA_negctrl_site665] | 7.83 ± 0.3
TATATTTAGAATACAATCTTAAAGTTGAAATAAAAT [CACACA_negctrl_site1292] | 7.39 ± 0.49
AAAAAAAAAACATACACACACACAAATATTTATATA [CACACA_site437] | 7.59 ± 0.48
TTTATTATCTTATTCACACACATATATAAATATGTA [CACACA_site7369] | 7.75 ± 0.61
AACATAATAAAAAAACGTACATAATTTTATATACAT [XGTACX_site6602] | 7.88 ± 0.21
ATATATCCAATATATATATATATATATATATATATA [CACACA_negctrl_site160] | 9.2 ± 0.67
CTAAAAAATAGTAAAAGTACATAAATAATTTTGCTT [XGTACX_site8919] | 7.58 ± 0.33
ACAATTATTTTGTTCTTTAATGGTAGGTTCTATGTC [CACACA_negctrl_site1419] | 7.64 ± 0.52
TTACACATGTTTAACTGTACACATAATAGCAATATT [XGTACX_site8545] | 8.15 ± 0.42
CATAAATTACTTTTTACACACTAAAATAAAATACAA [CACACA_site1135] | 7.84 ± 0.2
AATACACGCAGACACACACACACACGCACATATATA [CACACA_site6447] | 8.26 ± 0.59
GAAAAAAGAAATTAAACATGCATCTGCAAATTTAAA [TGCATGCA_site974] | 7.42 ± 0.74
AATAATATTTAATACACACACCAGTTCTGCAAATTT [CACACA_site7712] | 8.13 ± 0.65
AATAGTAAAAGATATACACACACCAAAAAATATAAT [CACACA_site5293] | 7.96 ± 0.57

Sequence | gcPBM binding intensity (ln)
ACATAATAAAAATAAATTCATAAGTAAATAAATAAA [TGCATGCA_negctrl_site186] | 7.42 ± 0.59
TGCTACATTTTATGTACACACATATACAGATATATA [CACACA_site4646] | 7.84 ± 0.4
TGAATAAATCAAAGCACACATACACCCACATATATA [CACACA_site286] | 8.46 ± 0.25
ATACAATTTATTTTAACACACGAATGAATTGATTAT [CACACA_site4160] | 7.76 ± 0.63
ATACAAATATACTTTTGTACGAAGAAATATATATAT [XGTACX_site3912] | 8.78 ± 0.057
GGTTCATATCTTAACACACACATACATATTATAGAT [CACACA_site7392] | 8.32 ± 0.42
TAAAGAAACTATTCAACACACGGTCTAATTATTACA [CACACA_site1064] | 7.44 ± 0.58
ATAAAAAAAATAAAAAGTACAAAAAAAAAAAATGGA [XGTACX_site136] | 8.02 ± 0.29
CAGGGCAGGGGGAAGGGTACACATAAAAGAAAATAA [XGTACX_site172] | 9.36 ± 0.16
AAAAATAAACGACAGTGTACTAAATATTTAATTTTC [XGTACX_site3580] | 7.83 ± 0.48
TATTCTAAAGAAATTACACACATGCAATGAAAAAAA [CACACA_site6895] | 8.09 ± 0.81
TATAAATATATATTTTGTACTTAATATAAATTTATA [XGTACX_site7996] | 7.5 ± 0.35
TTTTATAATTTCTTCTGTACATATATATGAAAATAT [XGTACX_site74] | 8.05 ± 0.47
TCAACCAAAACATAAGCATGCAATATATTTTTATAC [TGCATGCA_site560] | 7.8 ± 0.68
AAAAAAAAATATAACAGTACATAAACATATGAATAT [XGTACX_site7093] | 7.57 ± 0.72
TTATATATTTTTATGTGTACTTATATATATATATAT [XGTACX_site6211] | 9.41 ± 0.32
AACAAAAACACTTTTACACACATAAGTAAAATATAT [CACACA_site1994] | 7.85 ± 0.57
CACAAAGACACAAACACACACACACCCACATACATA [CACACA_site452] | 8.14 ± 0.19
ATTTCCCTATATAGAGCATGCACTATATTCAAATGA [TGCATGCA_site531] | 8.79 ± 0.33
AATATTTATTTTATATGTACATAATTTATTTTTAAT [XGTACX_site776] | 7.8 ± 0.41
AAAAAAAAAAAAAAAACACACAAGGATCATATATAT [CACACA_site3812] | 8.62 ± 0.5
GATTTGTCTTACAGTGGTACACTTATATATATGTGA [XGTACX_site2899] | 7.88 ± 0.63

Sequence | gcPBM binding intensity (ln)
TTTTTTTATATAGACACAAAAGAAAATTACATATAC [CACACA_negctrl_site235] | 7.92 ± 0.56
TATAATATATATATATTTATATATATCTTCCTAATC [GTGCAC_negctrl_site682] | 7.45 ± 0.2
TATGAAGTACACAATACACACTAATTATATATAAAT [CACACA_site5444] | 7.88 ± 0.28
TTTTTAAAAAAACATACACACAAAAAAAAAAAAAAA [CACACA_site3935] | 8.11 ± 0.67
TATATATATTATAATACATGCGGTGATGAAAGTTAT [TGCATGCA_site924] | 8.2 ± 0.73
TATAAATATAGACACACACACACCAAAGCGTAGCGC [CACACA_site6179] | 7.49 ± 0.65
TATATATATATATGATGTACATGAAAATTTCCAAAA [XGTACX_site5472] | 9.63 ± 0.41
ATATCTGAAGTGTAAAGTACATATATATATTCATAT [XGTACX_site4612] | 7.82 ± 0.32
TATATTTTTTAATTCACACAAAAATGAAAAATATTT [CACACA_site6001] | 7.68 ± 0.45
CAATTTTACTCATAAACACACATATAGATGTTATTA [CACACA_site7474] | 7.76 ± 0.39
AATGGAGTTTATAAGTATAAACGAGGGATACCTAAA [XGTACX_negctrl_site483] | 7.88 ± 0.7
AATATAAATAATAGTAGTACATATATATCTCAGAAA [XGTACX_site4055] | 7.68 ± 0.36
TTATGTTGTAAATGCACACATACATATACGCAGTTT [CACACA_site3015] | 9.76 ± 0.45
TAAATAAATTTATACACACACACACCCATATATATA [CACACA_site849] | 8.43 ± 0.61
AAAAAATCAAAACACACACACACACTAGAAAAAAAA [CACACA_site4909] | 7.92 ± 0.3
ATTTTATCAAGAGGAAGTACATTACCCCATGAAAAA [XGTACX_site8295] | 7.99 ± 0.71
AATAAAAATATATCCACACACATATATATATCTGTA [CACACA_site4481] | 7.75 ± 0.51
TATATTATATTTTTATGTACATATATGTTTTTTTTT [XGTACX_site8239] | 7.68 ± 0.47
CACACCCACAGACACACACACACATATATAATATAT [CACACA_site594] | 8.35 ± 0.18
AAAAAAAAAAAAAAAGCACACACCAATGAGCAGCTT [CACACA_site1845] | 9.24 ± 0.47
ATATGTTACAAAGATTGTACTTATTAAGGAGCGACT [XGTACX_site5094] | 7.91 ± 0.44
TAATATATGTATTATGCATGTGAATAAGCACTTGAT [TGCATGCA_site848] | 9.03 ± 0.4

Sequence | gcPBM binding intensity (ln)
TATAATCATATACACGCATGTATAAAATTTAATACT [TGCATGCA_site700] | 7.62 ± 0.54
ACATTCAAGCGTAATTGTACATACATATATATATAT [XGTACX_site8876] | 9.195 ± 0.021
ATGTATATAAATAGTAGTACATTATTTCACACTGTA [XGTACX_site2061] | 7.88 ± 0.36
TATTGTATCCTTAATGCATGCACCAAATAAAAAAAG [TGCATGCA_site541] | 10.1 ± 0.2
ACCATATGTACATTTTTTTTTTTTTTTTTTTTTTTT [CACACA_negctrl_site1188] | 9.735 ± 0.092
ATATATATATAATGTAGTACTATTTAATAATAAGCC [XGTACX_site1263] | 8.93 ± 0.42
AATAATTTGGTCTTATCAAAAATTAAAAATAAATAA [XGTACX_negctrl_site430] | 7.5 ± 0.46
AAAAAACATTTTCGAGTGCATGTTTTGCTTTATTTC | 8.46 ± 0.3
TTAAATGTTAAAAGGGTGCTATTATATAAATGAAAA [GTGCAC_site9882] | 9.7 ± 0.17
TTCATATGTTTTAACACACACGCATATATTATATAT [CACACA_site2007] | 8.12 ± 0.5
AAAAAAATTTGGCATACACACACACCCCCACCCACA [CACACA_site8094] | 9.38 ± 0.23
GTTTTATATTATATATGTACATATCCATGAGATATA [XGTACX_site3328] | 8.09 ± 0.7
TTTAACTTTTATATAACACACATATTGTAATTATGT [CACACA_site6486] | 7.92 ± 0.33
ATGACAATTCAAAATTGTACATAAAAAAAAAAAAAA [XGTACX_site7560] | 7.91 ± 0.84
TGTAAACATAAGATATGTACTTATATCATATTATAA [XGTACX_site6883] | 7.44 ± 0.34
TAAAAATTACTATATGAACACACATGATTAGATATA [CACACA_site9012] | 7.51 ± 0.54
AGGTGATTAATATATACACACATACATATATATATA [CACACA_site8913] | 9.15 ± 0.3
TAATAATAATTAAATTGTACATATAATATAATATAA [XGTACX_site8554] | 7.76 ± 0.33
ATATTATCATATTCGAGTACACGAAGTATTATTGCA [XGTACX_site6765] | 7.99 ± 0.52
AATAAAGTAATAACTACACACATTTATAAAAAAGTA [CACACA_site3753] | 7.63 ± 0.4
TATAAGCTTTCAATGTGTACATATTATTTTATTATT [XGTACX_site3988] | 7.93 ± 0.41
TCTTATAAACATGTATATATTAAAAAAAAAAAAAAA [TGCATGCA_negctrl_site86] | 8.01 ± 0.51
